# Assay results: the RNAGym collection of RNA variant scans (doi:10.7554/elife.90254)
# The source gives no read counts; variants with many changes may rest on few reads.
# B1: LINE1-mini (parent)
# chain: GGCAGAGCUCAACACAGCGUGGCAAAGUGGCUGUGGCUAGACUGCC
# Variants of: B1
# Test: self-cleavage, relative activity (ratio to wild type); higher = more cleavage; in vitro, sequencing; the parent is a self-cleaving ribozyme
row,Variant,self-cleavage
1,GGCAGACCUCAAUACAGCGCGGCAAAGUGGCUGUGGCUAGACUGCC [G7C C13U U20C],0.04
2,GGCAGAGCUCAACACAGCUUGGCAAAGUGGCUGUGUAUAGACCGCC [G19U G36U C37A U43C],0.13
3,AGCAGAGCUCAAGUCAGCGUGGCAAUGUGGCUGUGGCUAGACUGCC [G1A C13G A14U A26U],0.06
4,GCCAGAGCUCUACACAGCGUGGCAAAGUGGCUGUGGCUAGACUGCA [G2C A11U C46A],0.05
5,GGCAGAGCUCAAGACAGCGUGGCAAAGUUGCUAUGGCUAGACUGCC [C13G G29U G33A],0.08
6,GGCAGAGCUCGACACAGCGUGGCAUAGUGGCUGUGGCUAGACUGAC [A11G A25U C45A],0.02
7,GGCAGAGCUCAACACAGCGCGGCAAAGUGUCCGUGGCUAGAGUGCU [U20C G30U U32C C42G C46U],0.02
8,GACAGAGCUCAACAUCGCGUGGCAAAGUGGCUGUGGCUAGACUGUC [G2A C15U A16C C45U],0.06
9,GUCAGAGCUCAACACAGCGUGGCAAAGUGGAUGUGGUUAGACUGCC [G2U C31A C37U],0.05
10,GGCAGAGCUCGAUACAGCGUGGCAAAGUGGCUGUGGCUGGACUCCC [A11G C13U A39G G44C],0.04
11,GGCAGACCUCAACAUAGCGUGGCAAUGUGGCUGUGGCUAGACUGCC [G7C C15U A26U],0.02
12,UGCAGAGCUCAACACAGCGUGGCAAAGGGGCUCUGGCUAGACUGCC [G1U U28G G33C],0.01
13,GGCCGAGCUCAACACAACGUGGCAAAGUUGCUGUGGCUAGACUGCC [A4C G17A G29U],0.05
14,GGCAGAGCUCAACACAGCGUGGGAAAGUUGCUGUGGCUAAACUGCC [C23G G29U G40A],0.11
15,GGUAGAGCUCAACCCAGCGAGGCAAAGUGUCUGUGGCUAGACUGCG [C3U A14C U20A G30U C46G],0.06
16,AGCAGAGCUCAUCACAGCGUGGCAAACUGGCUGUGGAUAGACUGAC [G1A A12U G27C C37A C45A],0.02
17,GGCUGAGCUCAACACUGCGUGGCAAAGUGCCUGUGGCUAGACUGCC [A4U A16U G30C],0.03
18,GGCAGAGCUCAGCACAGCGUGGCAAAGUGGCUGUGGCUAGACUAAC [A12G G44A C45A],0.04
19,GGCAGAGCUCAACACAGCGAGGCAAAGUUGCUGUCGCUAGACUGCC [U20A G29U G35C],0.06

row,Variant,self-cleavage
1,GGCAGAGAUCAACACAGCGUGGCAAAGUGGCCGUGGAUAGACUGCC [C8A U32C C37A],0.18
2,CGUAGAGCUCAACACAGCGUGGCAAAGUGUCUGUGGCUCGACUGCC [G1C C3U G30U A39C],0.01
3,GGCAGAGUUCAACACAGCGUGGCAAAGUGGCUGUGGCUACACUACC [C8U G40C G44A],0.14
4,GACCGAGCUCAACGCAGCGUGGCAAAGUGGCUGUGGCUAGACUGCC [G2A A4C A14G],0.25
5,GGCAGACCUCAAAUCAGCGUGGCAAAGUGGCUAUGGCUAGACUGUC [G7C C13A A14U G33A C45U],0.2
6,GGCAGUGCUCAACGCAGCGUGGCAAAGUGUCUGUGGCUAGACUGCC [A6U A14G G30U],0.42
7,GGCAGAGCUCAACAGAGCGUGGCAAAGUGGCUGUGGUAAGACUGCC [C15G C37U U38A],0.03
8,GGCAGAGCUCAACAAAGAGUUGCAAAGUGGCUGUGGCUAGACUGCC [C15A C18A G21U],0.03
9,GGCAGAUCUCGACACAGCGUGGCAAAGUGGCUAUGGCUAGACUGCC [G7U A11G G33A],0.01
10,GGCAGAUCUCACCUCAGCGUGGCAAAGUGGCUGUGGGUACGCUGCC [G7U A12C A14U C37G G40C A41G],0.01
11,GGCAGAGCUCAACACAGCGUGGCAAAGUGGCUGUUGAUAGACCGCC [G35U C37A U43C],0.08
12,AGCAGAGCGCAACACAGCGUGGCAAAGUGGCUGUGGCUAGACUUCU [G1A U9G G44U C46U],0.16
13,GGCAGAGCUCAACAAAGUCUGGCAAAGUGGCUGUGGCUAGACUGCC [C15A C18U G19C],0.13
14,GGCAGAGCUCAACAAAGUGUGGCAAAGUCGCUGUGGAUACAAUACC [C15A C18U G29C C37A G40C C42A G44A],0.03
15,GGCAGAGGUCAACACAGCGUGGCAAAGCGGCUGUGGCUAGACUGUU [C8G U28C C45U C46U],0.01
16,GGCAGAGGUCAACACAGCGUGGCAAAGUGGCUGUGCCUAGCCUGCC [C8G G36C A41C],0.08
17,GCCAGAGCUCAACGCAGCGUGGCAAAGUGGCUGUGGCUAAACUGCC [G2C A14G G40A],0.01
18,GGCAUAGCUCAACAGAGCGUGGCCAAGUGGCUGUGACUAGACUGCC [G5U C15G A24C G36A],0.03
19,GGCAGAGCUAAACAGAGCGUGGGAAAGUGGCUGUGGUUAGACUGCC [C10A C15G C23G C37U],0.01

row,Variant,self-cleavage
1,GGAAGAGCUGUACACAGCGUGGCAAAGUAGCUGUGGCUAGAAUGCC [C3A C10G A11U G29A C42A],0.05
2,GGCAGCUCUCAACACAGCGUGGCAAAGUGGCUGUGGGUCGACUGUC [A6C G7U C37G A39C C45U],0.11
3,GCCAGAACUCAAUACAGCGUGGCAAAGAGGCUGUGGCCAGGGUGCC [G2C G7A C13U U28A U38C A41G C42G],0.25
4,GGCAGAGCUCAACACGGCGUGGUAAAGUGGGAGUGGCUAGACUGCC [A16G C23U C31G U32A],0.02
5,GGCAGACCUCAACACAGCGUUGCAAAGUGGCCGUGGCUAGACUGCC [G7C G21U U32C],0.06
6,GGCCGAGCUCAACGCAGCGCGGCAAAGUGGGUGUGGCUAGACUGCG [A4C A14G U20C C31G C46G],0.03
7,GCCAGAGCUCAACACUGCGUGGCAAAGUGGCUGUGGCUAGAACGCC [G2C A16U C42A U43C],0.09
8,GGCGGAGCUCAAGACAGCGUGGCAAAGUGACUGUGGCGAGACUGCC [A4G C13G G30A U38G],0.02
9,GGCAGAGCUCCACACAGCGUGGAAAAGUGGCUGUUGCUAGACUGCC [A11C C23A G35U],0.01
10,GGCAGAGCUCAACACAGCGUGGCAUAGUGGCUGUGGCUAGAUUGGC [A25U C42U C45G],0.13
11,GGCAGAGCUCAACCCAGAGUGGCAAAGUGGCUGUGGCUAGAAUGCC [A14C C18A C42A],0.06
12,AGCACAGCUCAACCCAGCGAGGCAAAGUGGCUGUGGCUAGACUGCU [G1A G5C A14C U20A C46U],0.04
13,GGCAGAGCUCAACACAUCGUGGCAAAGUGGCUGUCGCGGGACUGCC [G17U G35C U38G A39G],0.01
14,GGCAGAGCUCAAAACAGCGUGGCAAAGUGUCAGUGGCUAUACUGCC [C13A G30U U32A G40U],0.04
15,GGCAGAGCUCAACACAGCGUGGCAAAGCGGCUGUGGCUAUACUUUC [U28C G40U G44U C45U],0.03
16,GGCAGGGGUCAACACAGCGUGGCACAGUUGCUGUGGCUAGACUUCC [A6G C8G A25C G29U G44U],0.06
17,GGCAGAGCUCAACUCAGCGUCGAAAAAUUGCUGUGGCUAUACUGGA [A14U G21C C23A G27A G29U G40U C45G C46A],0
18,GGCAGAUCUCAACACAGCGUGGCAGAUUGGCUGUGACUAGACUGCA [G7U A25G G27U G36A C46A],0.05
